Laboratory results reported in PubChem BioAssay AID2147 (National Center for Advancing Translational Sciences (NCATS), 2009).
In all, about 230,000 compounds went through this assay and about 3,600 (1.6%) were called active. Inconclusive means that the source gave no clear call. Such entries were picked first, then a sample of the others. Calls follow the shape of the dose curve; as a rule, active = well fitted inhibition curve with a large enough effect (not every such curve was filed as active); inconclusive = small, poorly fitted or top-dose-only effect, or another doubt; inactive = no such curve, though single readings can be large or run the other way. A potency beside an inconclusive call is a rough fit, not a confirmed value.

What follows are compounds tested against Lysine-specific demethylase 4E (Homo sapiens) (UniProt B2RXH2) (assay: qHTS Assay for Inhibitors of Human Jumonji Domain Containing 2E (JMJD2E)). Conditions: JMJD2E catalytic domain, FDH-coupled NADH fluorescence (FDH is formaldehyde dehydrogenase); series mostly up to 57.1 µM; activity change, negative = inhibition: at the top concentration.
Also: nearly all actives have a fitted effect of over 50% in size.
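For activity change, negative = inhibition in this document: 0% = wells with enzyme and -100% = buffer wells without enzyme.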
Potency is read from the fitted curve at half-maximal effect; tags tell the direction and shape of the fitted curve.

Sequence of UniProt B2RXH2 (B2RXH2 whole entry, looked up, the tested form may be a part): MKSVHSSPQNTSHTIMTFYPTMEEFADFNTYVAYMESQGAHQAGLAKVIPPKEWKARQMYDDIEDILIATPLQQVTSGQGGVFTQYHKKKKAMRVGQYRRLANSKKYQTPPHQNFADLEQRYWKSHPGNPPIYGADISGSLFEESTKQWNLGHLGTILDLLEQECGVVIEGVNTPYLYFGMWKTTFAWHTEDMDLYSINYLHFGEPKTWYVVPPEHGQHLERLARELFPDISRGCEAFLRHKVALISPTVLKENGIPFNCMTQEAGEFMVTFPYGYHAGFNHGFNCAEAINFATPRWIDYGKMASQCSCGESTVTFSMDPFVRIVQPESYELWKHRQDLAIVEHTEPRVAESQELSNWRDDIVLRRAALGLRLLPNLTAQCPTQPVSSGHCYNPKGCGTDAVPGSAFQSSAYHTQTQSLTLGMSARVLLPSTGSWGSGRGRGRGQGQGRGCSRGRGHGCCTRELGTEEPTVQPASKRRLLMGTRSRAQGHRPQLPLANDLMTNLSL

SMILES	activity change, negative = inhibition	Potency
O=C(NNc1c(Cl)cccc1Cl)c1sccc1Cl	inactive: -6.85%	
C=C(C)COc1ccc(-c2[nH]ncc2Oc2ccccc2OC)c(O)c1		inconclusive: 39.8 µM [inhibitor, single point]
Cc1ccc(C(=O)CC2(O)C(=O)N(Cc3ccccc3Cl)c3ccccc32)o1 (stereo unspecified)	inactive: -13%	
C=CCNc1ncnc2ccc(Br)cc12		inconclusive: 35.5 µM [inhibitor, single point]
COC(=O)CSC1=C(C#N)C(c2ccc(C)o2)CC(=O)N1 (stereo unspecified)	inactive: 7.38%	
Clc1ccc2nc(-c3ccc4c(c3)OCO4)cn2c1		inconclusive: 20 µM [inhibitor, partial curve]
COc1cc(C(=S)N2CCOCC2)cc(OC)c1OC(=O)Cc1ccc(F)cc1	inactive: 4.82%	
O=C(CSc1ccc(-c2ccco2)nn1)NCc1ccc(Cl)cc1	inactive: 11.6%	
CCn1c(CSc2nnc(-c3ccc4c(c3)OCO4)o2)nc2cc(S(=O)(=O)N(C)C)ccc21		inconclusive: 39.8 µM [inhibitor, single point]
O=C(Nc1cc2c(=O)n(-c3ccc(Oc4ccccc4)cc3)ccc2oc1=O)c1ccccc1		inconclusive: 7.08 µM [inhibitor, full curve]
COc1ccc(CCN2C(=O)CC(Cc3ccccc3)C2=O)cc1OC (stereo unspecified)	inactive: 5.85%	
COc1ccc(CN2CCN(C(=O)C3CCN(S(=O)(=O)c4cccs4)CC3)CC2)c(OC)c1OC	inactive: -3.44%	
C=CCN(C(=O)CNC(=O)c1cccs1)C(C(=O)NC1CCCCC1)c1cccnc1 (stereo unspecified)		inconclusive: 8.91 µM [inhibitor, single point]
COc1cc(C(=O)N/N=C/c2sc(N3CCOCC3)nc2-c2ccccc2)cc(OC)c1OC		inconclusive: 25.1 µM [inhibitor, single point]
CC(=O)Nc1ccccc1-c1nnc(SCc2ccccc2Cl)[nH]c1=O	inactive: -2.38%	
Cc1nn(Cc2ccccc2)c(Cl)c1C(=O)OCC(=O)NC(=O)NC12CC3CC(CC(C3)C1)C2	inactive: 8.82%	
CCSc1ccc(-c2ccco2)nn1		inconclusive: 39.8 µM [inhibitor, single point]
CNc1nnc(-c2cccc(N(C)C)c2)s1		inconclusive: 31.6 µM [inhibitor, partial curve]
CCc1cccc(C)c1NC(=O)COC(=O)c1c2c(nc3ccccc13)/C(=C\c1cccs1)CCC2		inconclusive: 28.2 µM [inhibitor, single point]
Fc1ccc(CNc2cnccn2)cc1		inconclusive: 31.6 µM [inhibitor, partial curve]
CCOC(=O)C1(CCCc2ccccc2)CCN(C(=O)CCOC)CC1	inactive: 3.37%	
O=C(Nc1ccc(O)cc1)c1c(O)c2c([nH]c1=O)CCCC2		inconclusive: 28.2 µM [inhibitor, single point]
CCCC(=O)Nc1c(-c2cccs2)c(=O)c2ccccc2n1CC		inconclusive: 39.8 µM [inhibitor, single point]

SMILES	activity change, negative = inhibition	Potency
COCCCNC(=O)/C(C#N)=C/c1cccc(NC(=O)c2ccccc2Cl)c1	inactive: -14.5%	
CCOc1ccc2[nH]c(=O)c(CN(CCN3CCOCC3)Cc3nnnn3C(C)(C)CC)cc2c1		inconclusive: 28.2 µM [inhibitor, partial curve]
O=C(NC(=S)Nc1ccccc1N1CCCC1)c1ccc(-c2cccc([N+](=O)[O-])c2)o1	inactive: 8.97%	
O=C1c2ccccc2NC2(CCCCC2)N1N=C1CCCCC1		inconclusive: 25.1 µM [inhibitor, partial curve]
COc1ccc(/C=C/C(=O)c2ccc[nH]2)c(OC)c1OC	inactive: -8.02%	
Cc1nc2c(C#N)c(-c3ccc(Cl)cc3)ccn2n1		inconclusive: 39.8 µM [inhibitor, single point]
Cc1cc(C)n(-c2nc(SCC(=O)N3CCCC3)c3c4c(sc3n2)CCCC4)n1		inconclusive: 39.8 µM [inhibitor, single point]
COc1ccc(-c2cn[nH]c2-c2ccc(OCc3ccc(F)cc3)cc2O)cc1OC		inconclusive: 3.16 µM [inhibitor, full curve]
Cc1cc(=O)oc2cc(OCC(=O)N3CCCc4ccccc43)ccc12		inconclusive: 28.2 µM [inhibitor, single point]
Cc1[nH]c2ccccc2c1C(=O)CN1C(=O)C(=O)N(C2CCCC2)C1=O	inactive: -3.23%	
Cc1c(C(=O)NCCSCc2cccc(C(F)(F)F)c2)cnn1-c1ccc(Cl)cc1	inactive: -13.4%	
O=C(CSc1ncnc2scc(-c3ccccc3)c12)NCc1ccc2c(c1)OCO2		inconclusive: 39.8 µM [inhibitor, single point]
CCCCCCOC(=O)C(C#N)c1nc2ccccc2nc1N1CCCCC1 (stereo unspecified)		inconclusive: 39.8 µM [inhibitor, single point]
CCOC(=O)c1ccc(NC(=O)C(=O)NCc2ccco2)cc1		inconclusive: 5.01 µM [inhibitor, single point]
Cc1ccc(-c2[nH]c(=O)n3ccncc23)s1		inconclusive: 28.2 µM [inhibitor, single point]
Cn1c(SCC(=O)Nc2ccc3c(c2)oc2ccccc23)nnc1-c1ccccc1		inconclusive: 31.6 µM [inhibitor, single point]
CCCCN1CCC[C@@H]1CNC(=O)c1cc(C#N)c2ccccc2c1OC		inconclusive: 11.2 µM [inhibitor, full curve]
C=CCc1cccc2cc(C(=O)NCc3ccc(C(=O)OCC)o3)c(=O)oc12		inconclusive: 39.8 µM [inhibitor, single point]
COc1cccc(/C=N/NC(=O)COc2cccc3cccnc23)c1O		inconclusive: 35.5 µM [inhibitor, single point]
O=C(c1cn(-c2ccccc2)nc1-c1ccncc1)N1CCCCC1		inconclusive: 31.6 µM [inhibitor, partial curve]
COc1cccc(CNC(=O)CCC2CCCN(C(=O)c3ccc(OC)c(F)c3)C2)c1 (stereo unspecified)	inactive: -2.37%	
O=C(c1cc2ccccc2oc1=O)N(Cc1ccccc1)C1CCS(=O)(=O)C1 (stereo unspecified)		inconclusive: 22.4 µM [inhibitor, partial curve]
O=c1c2ccccc2nc2n1C(CSCc1cccc(C(F)(F)F)c1)CS2 (stereo unspecified)		inconclusive: 0.891 µM [inhibitor, single point]
